Data: the supplement of paper PMC10126150
Sequences with one replicate were seen in a single cluster, so their values are uncertain.

Test system: ATP
Assay: switch fluorescence ratio, 500 uM ATP over buffer (Cy3 cluster intensity, sum of 5 cycles each) (fold (ratio)); higher = stronger signal-on switching upon ATP binding; sequences stand for … in TCGTCGGCAGCGTCAGATGTGTATAAGAGACAGTTTTTTTTTTTTTTTTTTTTTTTTT…TC
Conditions: aptamer strand: ATP DNA aptamer (quencher-CACCTGGGGGAGTATTGCGGAGGAAGG + anchor), 100 nM annealed; ATP concentration: 500 uM; one replicate
Outline: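 Five buffer/ATP imaging cycles were run on Cy3-labelled switching-strand clusters on a modified Illumina MiSeq flow-cell, with NaOH stripping and re-annealing between cycles. In each cycle, clusters annealed to 100 nM quencher-labelled ATP aptamer were imaged in selection buffer, then after 15 min with 500 uM ATP at 22 °C. Per cluster, the fluorescence ratio is summed target-cycle over summed buffer-cycle Cy3 intensity, averaged per switch-domain sequence. Only clusters within 100-1000 RFU were kept.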
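Note: ATP exposure 15 min at 22 °C before imaging.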

Sequence | switch fluorescence ratio
GTATATAGGG | 0.97
AACGAGATGG | 0.976
GTCGGAAAAG | 1.01
ATGGTTCGGA | 0.962
GTTGAAAAAC | 1.02
TGGATCTCTA | 1
ACCTGAGACA | 1.04
CTCTGGCGGC | 1.14
GCTCGATCGT | 1.03
TGCACTATGG | 1
CTTAGTGTCC | 1.01
TAGCGTCATG | 1.03
TTCCTTTGCT | 1.32
TGCACAGCGT | 1.04
GCTAATTCGT | 0.992
GTCAATGGC | 1.07
TACTCATCTT | 1.02
GTAACGATGT | 1.01
TTGATCAAGT | 0.985
GTTTCCGGAA | 1.2
AATTTCTAGC | 0.948
TACCGCGCT | 1.09
ACTTTAGCTT | 1.04

Sequence | switch fluorescence ratio
GCTTAACTGG | 0.97
GTAGGTACGG | 1.04
TCAGGCTTAC | 1.3
TCACAAAAAT | 0.992
TCAACGGCGC | 1.01
AAAGTGTCTC | 1.01
TAGCTTGCGG | 0.98
TCCGACTAGG | 1.08
GTACGTTTAG | 1.05
GCCGAAGGTC | 0.95
ACCCTAGGGC | 1.04
CACTCAGAGC | 0.964
CTAGCCAGCG | 0.985
TGACCCAAGT | 1
TAGACTAATA | 1.02
TTTATGTGGT | 1.01
CCAGCTTTGT | 0.988
ACAGTTCC | 1.19
TAATCACACT | 1.03
CACTATTGCA | 1.04
ATAGCATGAT | 1.03
CTCGGCCCCG | 0.963
TGAGTGAAAA | 1.02

Sequence | switch fluorescence ratio
GGAGTCACTC | 0.99
GTTGGCAACG | 0.956
GATGGACCCT | 1.06
TAGACGGAAT | 1.14
GTCGCACATG | 0.946
CAATTAGCCT | 1.03
TTGAGTGCAA | 0.966
AATTTTCTA | 1.01
AGCACGCGGG | 0.974
TGGCACGGGA | 1.02
CGGTGCCGAC | 1.03
TTCGCTAAG | 2.15
GGCGCACAGC | 1.03
CCACTGTCTG | 1.03
CCATAGGCAC | 1.16
GGTACACTTC | 1.05
AAAAAAGATG | 1.01
ATGTTTGTGC | 0.963
AGTGAGAGAA | 1
CGACGGTGCC | 1.1
CCAAGATTAC | 2.44
AGTACTCGTG | 1
ATTGCGAAAG | 0.998

Sequence | switch fluorescence ratio
ATTGAGGTCC | 0.993
GCAAATTCCT | 1.05
CGTTATTCTT | 1.01
CTATGCGC | 1.07
AGCCGATTAA | 0.971
ATGACCTGTA | 1.11
ATAGGGACGT | 1.02
ACGTGCAGTA | 1.05
GCATCACTGT | 0.957
CGAGTGGGCG | 1.1
AAGGTCTAGA | 1.04
GCTCTGTCTG | 0.987
CCCGTCACTA | 1.13
ATTTTAGTCC | 0.966
AGGTACGGCA | 1.08
GTGGCGGAG | 0.966
CTCACGAGGG | 1.02
TTCAGGTGTT | 2.24
AAAGGGCACC | 1.02
GGGATCACAG | 1
TTACGTTTCG | 1.03
TTTCTGGGAA | 0.998
GCAAACTAAG | 1.05

Sequence | switch fluorescence ratio
ACAGACACCG | 1.07
CCAGAGAGC | 0.975
GCCTAACTGG | 0.955
AGCTTATCTG | 0.97
GCACTCGTCA | 0.98
GGGTCCCGGC | 1.02
GGCTCCCTCA | 1.04
TCCCATTCGA | 0.972
GCACAGTTTT | 1
ACGCATTACG | 4.05
CATTCACCAG | 1.11
CGGACCCCAG | 1.17
TTCTTAGGAT | 1.04
GGCAAAATGG | 1
ATCTGGAAGA | 1.03
CTTCAACGGG | 1
GACCTAGCAG | 0.995
GGTCAATGGG | 0.987
AGTTCTTGTG | 0.962
ATCACGAAGC | 1.08
AATCTATGGG | 0.991
CGATTTGCTC | 0.994
AGGGCGCGGG | 0.948

Sequence | switch fluorescence ratio
CCCAGTGGCA | 1.18
GGTTCATGCG | 1.03
AGGTGTCAGT | 1.03
TATCGAAAAC | 1.03
CCGATTAAAA | 1.08
ACTATATTTC | 1.11
GGCTTAGTTA | 1.01
ATGAAACGTG | 0.982
TACTAACGT | 1.49
TGAAGGGCCT | 0.91
CGTAAGTTTA | 1.04
ATAGCCGAAA | 1.01
CTTCGGCGG | 0.988
CATGGCAGAC | 2.1
ACTCCTAATT | 1.09
TGAGTCATCA | 1.02
GCTAATTCTA | 1
CATATTTAAA | 0.978
TTCTCCAGGT | 1.82
GTCAGCAGGG | 1.01
AAAACGGTTC | 1.08
TGCCCCGTTG | 1
TTCCGGGAAT | 1

Sequence | switch fluorescence ratio
GAAATATTGG | 0.997
GACGACGTTC | 1.85
GGGGTTGCTT | 1.01
CTCAGACCCT | 1.08
AGCTGGACGG | 1.03
TACAATTCGG | 0.963
TAGCCCAAGA | 1.03
CTGACGGGCC | 1.33
AGTTGGACAC | 1.06
TGATGTACGA | 0.983
GGCGCGGCTT | 0.978
TTCGAATTTG | 1.03
CATAGTAAGC | 1.1
AAAAATGGAA | 1.03
GAAAGCCTAG | 0.996
GGACTACGGG | 1.05
TTTAACATGT | 1.06
TTACCGAATA | 1.03
TCGCCTGTCT | 1.02
